# From PMC4336329 (PLoS ONE, 2015)
# About 2,200 (0.71%) of roughly 310,000 compounds showed an effect of 50% or more. The effect is printed as a negative number. The list shows a part of the results.
# Target: human ether-à-go-go-related gene (hERG) potassium channel (human, UniProt Q12809)
# Assay: primary screen, population patch clamp on CHO cells stably expressing hERG
# Chain of human ether-à-go-go-related gene (hERG) potassium channel (Q12809 whole entry, looked up): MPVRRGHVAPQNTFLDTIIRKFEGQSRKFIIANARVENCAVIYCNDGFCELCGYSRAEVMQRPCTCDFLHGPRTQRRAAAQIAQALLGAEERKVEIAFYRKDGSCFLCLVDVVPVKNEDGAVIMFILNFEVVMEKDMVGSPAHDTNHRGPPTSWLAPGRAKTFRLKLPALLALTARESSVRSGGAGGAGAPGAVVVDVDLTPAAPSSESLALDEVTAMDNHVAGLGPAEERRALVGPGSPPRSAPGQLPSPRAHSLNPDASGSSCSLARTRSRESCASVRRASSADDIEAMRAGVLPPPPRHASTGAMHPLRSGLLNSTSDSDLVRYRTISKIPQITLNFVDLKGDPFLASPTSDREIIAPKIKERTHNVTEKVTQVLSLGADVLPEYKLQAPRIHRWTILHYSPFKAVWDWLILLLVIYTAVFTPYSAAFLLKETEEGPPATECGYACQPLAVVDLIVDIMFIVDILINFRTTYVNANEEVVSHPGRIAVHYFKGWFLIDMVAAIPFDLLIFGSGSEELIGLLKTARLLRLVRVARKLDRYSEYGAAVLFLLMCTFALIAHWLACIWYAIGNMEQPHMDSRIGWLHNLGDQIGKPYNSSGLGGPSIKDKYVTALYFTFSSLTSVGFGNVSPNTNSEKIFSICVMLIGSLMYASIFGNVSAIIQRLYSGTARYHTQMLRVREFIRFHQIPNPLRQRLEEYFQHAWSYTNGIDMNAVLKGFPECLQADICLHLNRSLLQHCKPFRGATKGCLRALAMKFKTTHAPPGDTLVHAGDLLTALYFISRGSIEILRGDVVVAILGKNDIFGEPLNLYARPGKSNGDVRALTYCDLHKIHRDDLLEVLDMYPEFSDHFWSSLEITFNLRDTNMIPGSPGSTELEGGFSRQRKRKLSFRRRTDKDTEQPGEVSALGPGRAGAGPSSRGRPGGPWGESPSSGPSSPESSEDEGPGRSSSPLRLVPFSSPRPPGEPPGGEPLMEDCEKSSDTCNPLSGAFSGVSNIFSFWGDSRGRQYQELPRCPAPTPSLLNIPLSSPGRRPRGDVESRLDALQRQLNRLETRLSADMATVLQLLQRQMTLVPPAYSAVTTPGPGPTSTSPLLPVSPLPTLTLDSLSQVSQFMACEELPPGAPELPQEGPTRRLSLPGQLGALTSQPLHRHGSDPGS
row,Compound,"hERG current change (%, negative = inhibition) at 1uM [%]"
1,CCOc1ccc(NC(=O)CN(C)C(=O)CC2OC(=O)c3ccccc32)cc1OCC (stereo not shown),13.7
2,COc1cccc(NC(=O)CN(C)CC(=O)Nc2ccc(Br)cc2)c1,7.26
3,COc1cc(CNCCc2ccccc2)ccc1OCc1ccc(Cl)nc1.Cl,-0.117
4,N#Cc1cc(C(=O)c2cc(F)ccc2O)cn(Cc2ccccc2)c1=O,17.3
5,CC(C)Cn1c(N)c(C(=O)COC(=O)/C=C/c2cccs2)c(=O)n(C)c1=O,2.04
6,Cc1cc(C=O)c(C)n1-c1ccc(Oc2ccc([N+](=O)[O-])cn2)cc1,1.07
7,CCOc1ccc(-c2nnc(Nc3ccc(OC)c(C(=O)N4CCCCC4)c3)c3ccccc23)cc1,4.28
8,COC(=O)/C=C1/SC(=Nc2ccc(Cl)c(Cl)c2)NC1=O,7.18
9,CN1CCc2c(sc(NC(=O)C3CCN(S(=O)(=O)c4cccs4)CC3)c2C(N)=O)C1.Cl,-4.56
10,Cc1ccc(C(=O)N/C(=C\c2ccco2)C(=O)N2CCOCC2)cc1C,6.26
11,CN(C)S(=O)(=O)c1cccc(-c2csc(=Nc3ccccc3)n2CCCN2CCOCC2)c1,4.28
12,CCOC(=O)C1=C(N)OC2=C(C(=O)CCC2)C1c1cccs1 (stereo not shown),9.74
13,O=C(CN(C(=O)CNS(=O)(=O)c1ccc(F)cc1)C1CCCC1)NCc1ccco1,1.79
14,Cc1cc(OCCCCN2C(=O)NC(C)(C)C2=O)ccc1[N+](=O)[O-],10.1
15,CCCC(=O)Nc1nnc(Cc2ccccc2)s1,7.14
16,Cn1c2ccc(Br)cc2c2nnc(SCC(=O)O)nc21,11.3
17,CCCCC(C(=O)O)C(C)CC(=O)NNC(=O)c1ccco1 (stereo not shown),11
18,CCNC(=S)NNC(=O)c1ccc(=O)n(Cc2ccccc2)c1,14.4
19,C=CCNC(=S)NC(=O)c1csc([N+](=O)[O-])c1,13
20,CCn1c(=O)cc(SCC(=O)Nc2cccc(SC)c2)c2ccccc21,9.99
21,C/C(=N\NC(=O)Cc1ccccc1Cl)c1cccnc1,6.89
22,Cc1cc(OCC(=O)N2CCc3ccccc3C2)c(C)cc1Br,18.2
23,CC(=O)NCC(=O)N1CCCC(C(=O)c2ccc(-c3ccccc3)c(F)c2)C1 (stereo not shown),3.87

row,Compound,"hERG current change (%, negative = inhibition) at 1uM [%]"
1,COc1ccc2c(c1)[nH]c1c(=O)n(CCN(C)C)cnc12,8.49
2,O=C(Nc1ccccc1-c1nc2ccccc2[nH]1)c1sc2ccccc2c1Cl,7.29
3,O=C(CN1CCOCC1)Nc1ccc(NC(=O)CN2CCOCC2)c(Cl)c1,4.33
4,CCN1CCCC1CNCc1cccc(OC)c1OCc1ccccc1.Cl (stereo not shown),7.91
5,CC(C)Cc1nnc(NC(=O)CCC(=O)N2CCN(c3ccccn3)CC2)s1,2.39
6,NNC(=O)CN1C(c2ccc(Br)cc2)=Nc2ccc(Br)cc2C1c1ccccc1 (stereo not shown),-7.34
7,CC(OC(=O)c1ccncc1)C(=O)NC1CCCC1 (stereo not shown),7.66
8,S=C(c1ccc(Br)cc1)N1CCCC1,7.34
9,O=C(c1cnn2c1NC(c1ccc(Br)cc1)CC2C(F)(F)F)N1CCN2CCCC2C1 (stereo not shown),-23.2
10,Cc1ccc2cc(/C=N/NC(=O)c3ccc(F)cc3)c(Cl)nc2c1,-0.541
11,NC(=O)Nc1ccc(C(=O)OCC(=O)N2CCc3ccccc3C2)cc1,2.08
12,CCC(C(=O)NCc1ccccn1)n1c2ccccc2c2nc(=O)cc(C)n21 (stereo not shown),4.44
13,CCCC(=O)Nc1cc(-c2nnc(OC)c3ccccc23)ccc1N1CCOCC1,-8.8
14,COc1ccc(C2CC(c3ccc(C)cc3)=NN2C(=O)c2ccccc2)cc1 (stereo not shown),15.2
15,CCN1CCCC1CNCc1cccc(OC)c1OCc1ccccc1F.Cl (stereo not shown),-18.6
16,Cc1cccc(Nc2nc(CC(=O)O)cs2)c1,14
17,Cn1nnnc1SCc1csc(C2C(C#N)=C(N)OC3=C2C(=O)CCC3)c1 (stereo not shown),4.66
18,COc1cc(CN2CCc3c([nH]c4ccccc34)C2)cc(OC)c1,-22.2
19,COc1ccc(-c2csc(NC(=O)CS(=O)(=O)c3ccc(F)cc3)n2)cc1OC,-6.48
20,CC1CC1C(=O)OCC(=O)Nc1cccc(F)c1 (stereo not shown),7.95
21,O=C1CC(c2ccco2)Cc2nc(NCC3CCCO3)ncc21 (stereo not shown),4.64
22,Cc1ccc2c(c1)N(CCC(=O)NCCCN1CCCC1)C(=O)C(C)O2 (stereo not shown),23.9
23,Cc1nn2c(NCc3ccccn3)c3c(nc2c1-c1ccccc1)CCC3,5.27
